Test results taken from the supplement of paper PMC7826260.
The other results are listed elsewhere or left out. One pool of 16,384 single-stranded DNAs met each Rep nickase domain in vitro (3 µM enzyme, 1 h, 37 °C); shown is the middle of each 90-letter strand. The score is log2 (uncut reads / reads without enzyme); strong cutting gives strongly negative numbers. There is no active / inactive call. Shares of all reads are compared; where an enzyme cuts many sequences, the uncut ones exceed 0.

test system: T1, Rep nickase domain of tomato golden mosaic virus; assay: uncleaved DNA left, log2 of reads against the no-enzyme library (log2 ratio); higher = less cleavage (more negative = more Rep cleavage of the k-mer); sequences stand for … in CTCGTCCG…ACCGGAGA
T1 sequence (Rep 1-124, printed without the tag): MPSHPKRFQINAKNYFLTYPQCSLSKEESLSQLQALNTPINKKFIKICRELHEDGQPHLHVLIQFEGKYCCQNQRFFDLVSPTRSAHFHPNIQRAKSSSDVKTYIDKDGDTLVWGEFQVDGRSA
Method: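 A pool of 90-nt single-stranded DNAs with seven random bases just before the constant AC of the nick site (name = the seven bases) was cut by 3 µM recombinant His6-SUMO-tagged Rep nickase domain (300 nM DNA, 50 mM HEPES pH 8.0, 50 mM NaCl, 1 mM MnCl2, 1 h, 37 °C, three replicates). Uncut DNA was amplified and sequenced.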

Sequence | uncleaved DNA left (log2)
AGAGTAT | -0.00491
GAGTTGT | 0.034
TTATGCA | -0.102
TCAGTAG | 0.0427
ATGATTT | -0.187
CCTCAGT | -0.0291
CCCTTTC | -0.0292
CTCGACA | -0.12
CTCGTGA | -0.108
AGAGGGA | 0.17
TCGACCA | -0.0229
GTGTAAA | 0.15
TGGTGAG | -0.0787
TCGCCCA | 0.0966
ACGGGAA | -0.165
ATCAAAA | -0.0622
CGTAGTC | 0.0899
CATGGGC | -0.172
CTCTTAA | 0.052
GACGTGA | -0.0945

Sequence | uncleaved DNA left (log2)
CTGACCG | 0.065
TGAATCA | 0.0687
GAAGATA | 0.229
CTGCTGT | -0.104
ACGTTCT | 0.00126
AACTGTC | -0.0877
GCTTCTT | -0.0447
AGTCAAT | 0.0074
TCCGTGT | 0.0246
CCCCTCT | -0.0838
TACCTCT | -0.071
ATGCTTA | -0.101
TCCCACG | -0.219
CATATTG | -0.0391
CACTGGT | -0.29
TTTTGAG | -0.115
CCTTTCT | -0.107
CCGCTGT | 0.165
TGTGGTA | 0.184
TAGTCGA | -0.159
